Measurements published in PubChem BioAssay AID1508649 (National Center for Advancing Translational Sciences (NCATS), 2021).
Out of some 43,000 compounds screened, about 830 (1.9%) were called active. The shares of active, inactive and inconclusive entries below differ from those in the screen. How the source made its calls: active means clear falling dose curves in both reporters; inconclusive means both reporters move, but less clearly or upward; inactive means either reporter flat; the % is the NLuc reporter signal. Potencies of inconclusive entries are left out as doubtful fits.
On the % scale 0 is the no-effect control and ±100 the full control effect; potency means the concentration at half of the fitted maximal effect; tags describe the fitted curve by direction and shape.

Test: Cell-based coincidence reporter assay to measure PMP22 gene transcription in S16 Pmp22-F2sN cells - Primary screen
Conditions: S16 Pmp22-F2sN Schwann cells (luciferase reporters placed in the Pmp22 gene), FLuc/NLuc coincidence luminescence, 24 h; measured here: NLuc reporter readout, at 57.5 µM (top of the series); activity change, negative = inhibition: at the top concentration
How it was run: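 Rat S16 Pmp22-F2sN cells, 500-1,000/well in phenol red-free DMEM + 10% FBS, compound-treated 24 h (37C, 5% CO2). Luminescence: FLuc read, Stop&Glo added, NLuc read.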
With COc1ccc(NC(=O)c2c(NCc3ccc(C)o3)sc3c2CCCCC3)c(OC)c1 the Potency was active: 14.1 µM. With CCc1ccc(NC(=O)CSc2nc3nc(C)cc(C)n3n2)cc1 the Potency was inconclusive [phenotype inactive, single point]. With CCC1CCCCN1C(=O)c1ccc2c(c1)N(Cc1cccc(Cl)c1)C(=O)c1ccccc1S2(=O)=O (stereo not given) the Potency was inconclusive [phenotype inactive, single point]. For CCCC(=O)Nc1cc(C)c(O)c(-c2nc3ncccc3o2)c1, the Potency was inconclusive [phenotype inactive, single point]. In the case of CCC(C(=O)Nc1ccc(C(=O)OC)cc1)n1c(=O)c(-c2ccccc2NC(C)=O)nc2ccccc21 (stereo not given), the Potency is reported as inconclusive [phenotype inactive, single point]. For CN(C(=O)C1CCCN(c2ncnc3c2nc2n3CCCCC2)C1)c1ccccc1F (stereo not given), the Potency was inconclusive [phenotype inactive, single point]. For CCc1cccc(NC(=O)Nc2ccc3c(c2)N(C)C(=O)c2ccccc2S3)c1, the Potency was inconclusive [phenotype inactive, single point]. With O=C1c2ccccc2C(=O)C1(c1ccccc1)N1CCN(c2cccc(Cl)c2)CC1 the “activity change, negative = inhibition” value was inactive: 30.1%. With Cn1cc(CN(C(=O)Nc2ccc(Cl)c(Cl)c2)C2CCCCC2)c2ccccc21 the “activity change, negative = inhibition” value was inactive: -85.4%. With COc1ccc(-n2c(/C=C/c3ccccc3F)nc3cc(OC)c(OC)cc3c2=O)cc1Cl the “activity change, negative = inhibition” value was inactive: -29.4%. With Cc1cc(C)cc(Oc2nc3c(C)cccn3c(=O)c2/C=C(\C#N)c2nc3ccccc3[nH]2)c1 the Potency was inconclusive [phenotype inactive, single point]. In the case of COc1cccc(N2CC(NC(=O)C(c3ccccc3)c3ccccc3)CC2=O)c1 (stereo not given), the Potency is reported as inconclusive [phenotype inactive, single point]. For Cc1cc(C)cc(-n2c(SCC(=O)N3CCCCC3)nc3c([nH]c4ccccc43)c2=O)c1, the Potency was inconclusive [phenotype inactive, partial curve, poor fit]. For Cc1c(Cl)cccc1-c1ccc(CNc2ccc3[nH]c(=O)[nH]c3c2)o1, the Potency was inconclusive [phenotype inactive, single point]. With CCOC(=O)c1c(N)n(-c2cccc(OC)c2)c2nc3ccccc3nc12 the “activity change, negative = inhibition” value was inactive: -5.82%. With Cc1cccc(-c2noc(CN(C(=O)COc3ccc(Br)cc3C)C(C)C)n2)c1 the Potency was inconclusive [phenotype inactive, single point]. With O=C(NC1CCCCC1)c1cc2c(Cl)nc3ccccc3c2s1 the “activity change, negative = inhibition” value was inactive: -16.2%. With Cc1ccn2c(Nc3ccccc3C)c(-c3ccccn3)nc2c1 the Potency was inconclusive [phenotype inactive, single point]. In the case of Cc1cc(C)c(CSc2nnc(C)n3c2cc2occc23)c(C)c1, the Potency is reported as inconclusive [phenotype inactive, single point]. With O=C(CCC1N=C2c3ccccc3N=C(SCC(=O)Nc3ccccc3F)N2C1=O)NCc1ccccc1 (stereo not given) the “activity change, negative = inhibition” value was inactive: -17%. In the case of O=C1c2[nH]nc(-c3ccccc3O)c2C(c2ccc(Cl)cc2)N1Cc1ccco1 (stereo not given), the Potency is reported as inconclusive [phenotype inactive, single point]. For O=C(CCc1nc(CN2CCN(S(=O)(=O)c3ccc(F)cc3)CC2)no1)N1CCCCC1, the “activity change, negative = inhibition” value was inactive: -12.7%. For CCc1ccc(-n2c(SCc3ccccc3F)nc3[nH]ncc3c2=O)cc1, the Potency was inconclusive [phenotype inactive, partial curve]. In the case of CCOCCCNC(=O)NC(C)c1c(-n2cccc2)sc2c1CCN(CC)C2 (stereo not given), the Potency is reported as active: 16.3 µM. For CCOC(=O)c1ccccc1NC(=O)CSc1nc2ncccc2[nH]1, the “activity change, negative = inhibition” value was inactive: -109%. In the case of CCN1c2ccccc2-c2nc(SCC(=O)Nc3ccc(C)c(Cl)c3)ncc2S1(=O)=O, the Potency is reported as inconclusive [phenotype inactive, single point]. In the case of Cc1ccc(NC(=O)N2CCC(n3c(C)nc4cccnc43)CC2)c(Cl)c1, the Potency is reported as inconclusive [phenotype inactive, full curve, poor fit]. In the case of Clc1ccccc1-c1nc(Nc2ccccc2)nc2ccc(Br)cc12, the Potency is reported as inconclusive [phenotype inactive, single point]. With CCOc1ccc(CNC(=O)c2ccc3nc(Cc4ccc(OC)cc4)oc3c2)cc1OC the Potency was inconclusive [phenotype inactive, single point]. In the case of O=c1c2sc3ccccc3c2n(Cc2ccccc2)c(=O)n1Cc1ccccc1, the “activity change, negative = inhibition” value is reported as inactive: -8.13%. With CCOc1ccccc1CNC(=O)Nc1cn(CC(C)C)c(=O)c2ccccc12 the Potency was inconclusive [phenotype inactive, single point]. For COc1cccc(-n2ccnc2SCC(=O)Nc2cccc(C)c2C)c1, the Potency was inconclusive [phenotype inactive, full curve, poor fit]. In the case of CCOC(=O)c1c(C)c(-c2ccccc2)n(CC(=O)Nc2cc(OC)cc(OC)c2)c1C, the Potency is reported as inconclusive [phenotype inactive, single point]. With Cc1ccc(Nc2c(-c3ccc(C)cc3)nc3cnccn23)cc1 the Potency was inconclusive [phenotype inactive, single point]. For COc1ccccc1C(=O)Nc1nc2ccc(S(=O)(=O)N3CCCC3)cc2s1, the “activity change, negative = inhibition” value was inactive: 9.43%. For CCOc1ccc(CCNC(=O)CN2CCN(Cc3ccc(F)cc3Cl)C2=O)cc1OCC, the Potency was inconclusive [phenotype inactive, single point]. In the case of Cc1ccc2nc(-c3ccccn3)c(Nc3ccc(F)cc3)n2c1, the Potency is reported as inconclusive [phenotype inactive, single point]. In the case of COc1ccc(C)cc1NC(=O)C(=O)NCCc1csc(-c2ccc(C)cc2)n1, the Potency is reported as inconclusive [phenotype inactive, single point]. For CCOc1ccccc1NS(=O)(=O)c1c(-c2ccc(C)cc2)csc1C(=O)OC, the Potency was inconclusive [phenotype inactive, single point]. In the case of Cc1c(Cl)cccc1NC(=O)CCS(=O)(=O)c1ccc(Br)s1, the “activity change, negative = inhibition” value is reported as inactive: -19.8%. In the case of CCOC(=O)c1cc(-c2ccccc2)n(CCCC(=O)Nc2ccc(CC)cc2)c1C, the Potency is reported as inconclusive [phenotype inactive, single point]. With Cc1ccc2occ(CC(=O)Nc3ccc(S(N)(=O)=O)cc3)c2c1 the “activity change, negative = inhibition” value was inactive: 5.4%. For CCC(Sc1nncn2c1cc1sccc12)C(=O)Nc1cccc(OC)c1 (stereo not given), the Potency was inconclusive [phenotype inactive, single point]. In the case of CC(C)(C)C1CCc2nc(NC(=O)Cc3ccc(Cl)cc3)sc2C1 (stereo not given), the Potency is reported as inconclusive [phenotype inactive, single point]. With CCCNC(=O)Nc1cc(C(=O)NCc2cccc(OCC)c2)ccc1N1CCCC1 the Potency was inconclusive [phenotype inactive, full curve, poor fit]. With COc1ccccc1NC(=O)CSc1nc2nccnc2c(=O)n1CCc1c[nH]c2ccccc12 the Potency was active: 13.4 µM. For COc1ccc(N2CCN(C(=O)CSc3c4c(nc5ccc(Cl)cc35)CCCC4)CC2)cc1, the Potency was inconclusive [phenotype inactive, partial curve]. In the case of CCCCOc1ccc(C(=O)NCCc2sc(-c3ccc(OC)c(OC)c3)nc2C)cc1, the Potency is reported as inconclusive [phenotype inactive, single point]. For Cc1oc(-c2ccccc2F)nc1CSCC(=O)N1CCN(c2ccccc2)CC1, the Potency was inconclusive [phenotype inactive, single point]. In the case of CS(=O)(=O)c1ncc(Cl)c(C(=O)Nc2c(C(=O)Nc3ccccc3)oc3ccccc23)n1, the Potency is reported as inconclusive [phenotype inactive, partial curve, poor fit]. For CC1CCCCN1CCCNC(=O)c1cc(Sc2cccc(Cl)c2)nc2ccccc12 (stereo not given), the Potency was inconclusive [phenotype inactive, single point]. For CCOc1ccc(C(=O)c2cn(CC(=O)Nc3ccc4c(c3)OCO4)c3ccc(OC)cc3c2=O)cc1, the Potency was inconclusive [phenotype inactive, single point]. In the case of COc1cccc(N2CCN(C(=O)C3CCCN(S(=O)(=O)c4cccc5nsnc45)C3)CC2)c1 (stereo not given), the Potency is reported as inconclusive [phenotype inactive, single point]. With Cc1ccc(Cl)cc1N1CCN(C(=O)CN2C(=O)COc3ccc(S(=O)(=O)N4CCCCCC4)cc32)CC1 the Potency was inconclusive [phenotype inactive, partial curve]. For CCOc1ccccc1NC(=O)CCCc1nc(-c2ccccc2Cl)no1, the “activity change, negative = inhibition” value was inactive: -17.2%. For CCOc1ccc2nc(NC(=O)c3nc(SCc4ccccc4C)ncc3Cl)sc2c1, the Potency was inconclusive [phenotype inactive, single point]. For CCS(=O)(=O)N1CCc2cc(C(=O)N3CCN(c4ccccc4OC)CC3)ccc21, the Potency was inconclusive [phenotype inactive, single point]. For CCC(Sc1nc(-c2ccc(F)cc2)nc2c1Cc1c(CO)cnc(C)c1O2)C(=O)Nc1ccc(F)cc1 (stereo not given), the Potency was inconclusive [phenotype inactive, single point]. With COc1cc(/C=C(\C#N)c2nc3ccccc3[nH]2)ccc1OCc1ccccc1F the Potency was active: 12.6 µM. With CC(=O)N1CCc2c(sc3c2c(=O)n(Cc2ccccc2)c(=O)n3Cc2ccccc2F)C1 the Potency was inconclusive [phenotype inactive, single point].
